# Reference: the supplement of paper PMC8728848
# Some of the results follow.
# B1: SefD (Salmonella enterica), Q9L6K6 (protein)
# chain: GAYIIRGQNNSAHKLRIRIGGEDWQPDNSGIGMVSHSDFTNEFNIYYFGNGDIPVDTYLISIYATEIEL
# What was measured:
# Assay in all cases: glycan array binding signal (z-score within array); higher = stronger binding
# Settings in all cases: glycan notation: IUPAC condensed, linker removed
# Fuc(a1-2)Gal = target: Fuc(a1-2)Gal
# In short: (§1)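 Arrays were curated from the Consortium for Functional Glycomics database, 3228 in total, and kept only where the protein sequence was available. Binding is expressed as a within-array Z-score. This score was averaged across arrays of the same protein sequence at different concentrations or buffers and across linkers, and negative values can be read as non-binding.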
# Fuc(a1-2)Gal(b1-3)GalNAc = target: Fuc(a1-2)Gal(b1-3)GalNAc
# In short: as §1
# [1] = target: Fuc(a1-2)Gal(b1-3)GalNAc(a1-3)[Fuc(a1-2)]Gal(b1-4)Glc
# In short: as §1
# [2] = target: Fuc(a1-2)Gal(b1-3)GalNAc(a1-3)[Fuc(a1-2)]Gal(b1-4)GlcNAc
# In short: as §1
# [3] = target: Fuc(a1-2)Gal(b1-3)GalNAc(b1-3)Gal
# In short: as §1
# [4] = target: Fuc(a1-2)Gal(b1-3)GalNAc(b1-3)Gal(a1-4)Gal(b1-4)Glc
# In short: as §1
# [5] = target: Fuc(a1-2)Gal(b1-3)GalNAc(b1-4)[Neu5Ac(a2-3)]Gal(b1-4)Glc
# In short: as §1
# Fuc(a1-2)Gal(b1-3)GlcNAc = target: Fuc(a1-2)Gal(b1-3)GlcNAc
# In short: as §1
# [6] = target: Fuc(a1-2)Gal(b1-3)GlcNAc(b1-2)Man(a1-3)[Fuc(a1-2)Gal(b1-3)GlcNAc(b1-2)Man(a1-6)]Man(b1-4)GlcNAc(b1-4)GlcNAc
# In short: as §1
# [7] = target: Fuc(a1-2)Gal(b1-3)GlcNAc(b1-2)Man(a1-3)[Fuc(a1-2)Gal(b1-3)GlcNAc(b1-2)Man(a1-6)]Man(b1-4)GlcNAc(b1-4)[Fuc(a1-6)]GlcNAc
# In short: as §1
# [8] = target: Fuc(a1-2)Gal(b1-3)GlcNAc(b1-3)Gal(b1-4)Glc
# In short: as §1
# [9] = target: Fuc(a1-2)Gal(b1-3)GlcNAc(b1-3)GalNAc
# In short: as §1
# [10] = target: Fuc(a1-2)Gal(b1-3)GlcNAc(b1-3)[Fuc(a1-3)[Gal(b1-4)]GlcNAc(b1-6)]Gal(b1-4)Glc
# In short: as §1
# [11] = target: Fuc(a1-2)Gal(b1-3)GlcNAc(b1-3)[Gal(b1-4)GlcNAc(b1-6)]Gal(b1-4)Glc
# In short: as §1
# [12] = target: Fuc(a1-2)Gal(b1-3)GlcNAc(b1-3)[Neu5Ac(a2-6)Gal(b1-4)GlcNAc(b1-6)]Gal(b1-4)Glc
# In short: as §1
# [13] = target: Fuc(a1-2)Gal(b1-3)[Fuc(a1-4)]GlcNAc
# In short: as §1
# [14] = target: Fuc(a1-2)Gal(b1-3)[Fuc(a1-4)]GlcNAc(b1-2)Man(a1-3)[Fuc(a1-2)Gal(b1-3)[Fuc(a1-4)]GlcNAc(b1-2)Man(a1-6)]Man(b1-4)GlcNAc(b1-4)GlcNAc
# In short: as §1
# [15] = target: Fuc(a1-2)Gal(b1-3)[Fuc(a1-4)]GlcNAc(b1-3)[Fuc(a1-3)[Gal(b1-4)]GlcNAc(b1-6)]Gal(b1-4)Glc
# In short: as §1
# [16] = target: Fuc(a1-2)Gal(b1-3)[Fuc(a1-4)]GlcNAc(b1-3)[Gal(b1-4)GlcNAc(b1-6)]Gal(b1-4)Glc
# In short: as §1
# Fuc(a1-2)Gal(b1-4)Glc = target: Fuc(a1-2)Gal(b1-4)Glc
# In short: as §1
# Fuc(a1-2)Gal(b1-4)Glc6S = target: Fuc(a1-2)Gal(b1-4)Glc6S
# In short: as §1
# Fuc(a1-2)Gal(b1-4)GlcNAc = target: Fuc(a1-2)Gal(b1-4)GlcNAc
# In short: as §1
# [17] = target: Fuc(a1-2)Gal(b1-4)GlcNAc(b1-2)Man(a1-3)[Fuc(a1-2)Gal(b1-4)GlcNAc(b1-2)Man(a1-6)]Man(b1-4)GlcNAc(b1-4)GlcNAc
# In short: as §1
# [18] = target: Fuc(a1-2)Gal(b1-4)GlcNAc(b1-2)Man(a1-3)[Fuc(a1-2)Gal(b1-4)GlcNAc(b1-2)Man(a1-6)]Man(b1-4)GlcNAc(b1-4)[Fuc(a1-6)]GlcNAc
# In short: as §1
# [19] = target: Fuc(a1-2)Gal(b1-4)GlcNAc(b1-2)[Fuc(a1-2)Gal(b1-4)GlcNAc(b1-4)]Man(a1-3)[Fuc(a1-2)Gal(b1-4)GlcNAc(b1-2)Man(a1-6)]Man(b1-4)GlcNAc(b1-4)GlcNAc
# In short: as §1
# [20] = target: Fuc(a1-2)Gal(b1-4)GlcNAc(b1-3)Gal(b1-4)GlcNAc
# In short: as §1
# [21] = target: Fuc(a1-2)Gal(b1-4)GlcNAc(b1-3)Gal(b1-4)GlcNAc(b1-3)Gal(b1-4)GlcNAc
# In short: as §1
# [22] = target: Fuc(a1-2)Gal(b1-4)GlcNAc(b1-3)GalNAc
# In short: as §1
# [23] = target: Fuc(a1-2)Gal(b1-4)GlcNAc(b1-3)[Fuc(a1-2)Gal(b1-4)GlcNAc(b1-6)]GalNAc
# In short: as §1
# [24] = target: Fuc(a1-2)Gal(b1-4)GlcNAc6S
# In short: as §1
# [25] = target: Fuc(a1-2)Gal(b1-4)[Fuc(a1-3)]GlcNAc
# In short: as §1
# [26] = target: Fuc(a1-2)Gal(b1-4)[Fuc(a1-3)]GlcNAc(b1-2)Man(a1-3)[Fuc(a1-2)Gal(b1-4)[Fuc(a1-3)]GlcNAc(b1-2)Man(a1-6)]Man(b1-4)GlcNAc(b1-4)GlcNAc
# In short: as §1
# [27] = target: Fuc(a1-2)Gal(b1-4)[Fuc(a1-3)]GlcNAc(b1-2)[Fuc(a1-2)Gal(b1-4)[Fuc(a1-3)]GlcNAc(b1-4)]Man(a1-3)[Fuc(a1-2)Gal(b1-4)[Fuc(a1-3)]GlcNAc(b1-2)Man(a1-6)]Man(b1-4)GlcNAc(b1-4)GlcNAc
# In short: as §1
# [28] = target: Fuc(a1-2)Gal(b1-4)[Fuc(a1-3)]GlcNAc(b1-3)Gal(b1-4)[Fuc(a1-3)]GlcNAc
# In short: as §1
# [29] = target: Fuc(a1-2)Gal(b1-4)[Fuc(a1-3)]GlcNAc(b1-3)Gal(b1-4)[Fuc(a1-3)]GlcNAc(b1-3)Gal(b1-4)[Fuc(a1-3)]GlcNAc
# In short: as §1
# [30] = target: Fuc(a1-2)Gal(b1-4)[Fuc(a1-3)]GlcNAc(b1-3)GalNAc
# In short: as §1
# Fuc(a1-2)Gal6S(b1-4)Glc = target: Fuc(a1-2)Gal6S(b1-4)Glc
# In short: as §1
# [31] = target: Fuc(a1-2)Gal6S(b1-4)Glc6S
# In short: as §1
# [32] = target: Fuc(a1-2)Gal6S(b1-4)GlcNAc
# In short: as §1
# Fuc(a1-2)[Gal(a1-3)]Gal = target: Fuc(a1-2)[Gal(a1-3)]Gal
# In short: as §1
# [33] = target: Fuc(a1-2)[Gal(a1-3)]Gal(b1-3)GalNAc
# In short: as §1
# [34] = target: Fuc(a1-2)[Gal(a1-3)]Gal(b1-3)GlcNAc
# In short: as §1
# [35] = target: Fuc(a1-2)[Gal(a1-3)]Gal(b1-3)GlcNAc(b1-2)Man(a1-3)[Fuc(a1-2)[Gal(a1-3)]Gal(b1-3)GlcNAc(b1-2)Man(a1-6)]Man(b1-4)GlcNAc(b1-4)GlcNAc
# In short: as §1
# [36] = target: Fuc(a1-2)[Gal(a1-3)]Gal(b1-3)GlcNAc(b1-2)Man(a1-3)[Fuc(a1-2)[Gal(a1-3)]Gal(b1-3)GlcNAc(b1-2)Man(a1-6)]Man(b1-4)GlcNAc(b1-4)[Fuc(a1-6)]GlcNAc
# In short: as §1
# [37] = target: Fuc(a1-2)[Gal(a1-3)]Gal(b1-3)GlcNAc(b1-3)GalNAc
# In short: as §1
binder,measurement,setting,value
B1,glycan array binding signal (z-score),Fuc(a1-2)Gal,0.146
same,glycan array binding signal (z-score),Fuc(a1-2)Gal(b1-3)GalNAc,-0.293
same,glycan array binding signal (z-score),[1],-0.357
same,glycan array binding signal (z-score),[2],-0.464
same,glycan array binding signal (z-score),[3],-0.267
same,glycan array binding signal (z-score),[4],0.329
same,glycan array binding signal (z-score),[5],-0.236
same,glycan array binding signal (z-score),Fuc(a1-2)Gal(b1-3)GlcNAc,-0.291
same,glycan array binding signal (z-score),[6],-0.486
same,glycan array binding signal (z-score),[7],0.025
same,glycan array binding signal (z-score),[8],-0.094
same,glycan array binding signal (z-score),[9],-0.491
same,glycan array binding signal (z-score),[10],-0.271
same,glycan array binding signal (z-score),[11],-0.595
same,glycan array binding signal (z-score),[12],-0.16
same,glycan array binding signal (z-score),[13],-0.37
same,glycan array binding signal (z-score),[14],-0.362
same,glycan array binding signal (z-score),[15],0.119
same,glycan array binding signal (z-score),[16],5.83
same,glycan array binding signal (z-score),Fuc(a1-2)Gal(b1-4)Glc,-0.593
same,glycan array binding signal (z-score),Fuc(a1-2)Gal(b1-4)Glc6S,-0.26
same,glycan array binding signal (z-score),Fuc(a1-2)Gal(b1-4)GlcNAc,0.74
same,glycan array binding signal (z-score),[17],0.118
same,glycan array binding signal (z-score),[18],-0.414
same,glycan array binding signal (z-score),[19],-0.171
same,glycan array binding signal (z-score),[20],-0.349
same,glycan array binding signal (z-score),[21],-0.043
same,glycan array binding signal (z-score),[22],-0.352
same,glycan array binding signal (z-score),[23],-0.26
same,glycan array binding signal (z-score),[24],-0.184
same,glycan array binding signal (z-score),[25],-0.523
same,glycan array binding signal (z-score),[26],0.361
same,glycan array binding signal (z-score),[27],-0.253
same,glycan array binding signal (z-score),[28],-0.137
same,glycan array binding signal (z-score),[29],-0.353
same,glycan array binding signal (z-score),[30],-0.2
same,glycan array binding signal (z-score),Fuc(a1-2)Gal6S(b1-4)Glc,0.242
same,glycan array binding signal (z-score),[31],0.837
same,glycan array binding signal (z-score),[32],-0.327
same,glycan array binding signal (z-score),Fuc(a1-2)[Gal(a1-3)]Gal,-0.178
same,glycan array binding signal (z-score),[33],-0.186
same,glycan array binding signal (z-score),[34],-0.17
same,glycan array binding signal (z-score),[35],-0.422
same,glycan array binding signal (z-score),[36],-0.12
same,glycan array binding signal (z-score),[37],-0.433
